Target: the molecule itself
Assay: AUC

B1: DCC-SSB (G26C mutant of E. coli single-stranded DNA binding protein labeled with IDCC, N-[2-(iodoace (natural protein)
chain: not shown
modifications: diethylaminocoumarin (IDCC adduct) on the cysteine of G26C
stoichiometry N: 4
